Assay results published in PubChem BioAssay AID504832 (National Center for Advancing Translational Sciences (NCATS), 2011).
Screen size: about 310,000 compounds; about 18,000 (5.8%) were called active. The inconclusive results got no clear call from the source; some entries with a clear call stand among them for comparison. Calls follow the shape of the dose curve; as a rule, active = well fitted inhibition curve with a large enough effect; inconclusive = small, poorly fitted or top-dose-only effect, or another doubt; inactive = no such curve, though single readings can be large or run the other way. Potencies of inconclusive entries are left out as doubtful fits.

experiment: Primary qHTS for delayed death inhibitors of the malarial parasite plastid, 48 hour incubation; settings: P. falciparum luciferase growth in erythrocytes; series mostly up to 28.7 µM
Method in brief: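 Firefly luciferase activity from engineered P. falciparum reports growth; inhibitors lower the luminescent signal. Cultures contained 2% hematocrit erythrocytes at 0.1% final parasitemia.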
Potency is read from the fitted curve at half-maximal effect; tags tell the direction and shape of the fitted curve.

| SMILES | Potency |
| --- | --- |
| COc1cccc(CNC(=O)Cc2ccc(S(=O)(=O)N3CCOCC3)s2)c1 | inconclusive [inhibitor, single point] |
| O=C(N/N=C/C(Cl)=C\c1ccccc1)c1ccco1 | active: 1.85 µM |
| COc1ccc(-n2c(COc3cccc4ccccc34)nnc2SCC#N)cc1 | active: 13.1 µM |
| O=C(COc1ccccc1Cl)NNC(=O)c1ccc2nc[nH]c2c1 | inconclusive [inhibitor, single point] |
| O=C(CCCCCCN1C(=O)c2ccccc2C1=O)N1CCC(c2ccccc2)C1 (stereo unspecified) | inconclusive [inhibitor, single point] |
| Cc1sc(NC(=O)c2ccc(OCC(C)C)cc2)c(C(N)=O)c1-c1ccc(Cl)cc1Cl | inconclusive [inhibitor, full curve, poor fit] |
| CCN(CC)CCNC(=S)Nc1ccc2nc(N3CCN(CC)CC3)cc(C)c2c1 | active: 11.7 µM |
| CCNS(=O)(=O)c1cc(Br)ccc1OC | inactive |
| Cc1ccc(OCC(=O)N(Cc2nnc(-c3ccccc3Cl)o2)C2CC2)cc1C | inconclusive [inhibitor, single point] |
| CCCCN1C(=O)CC(Sc2ncccc2C(=O)O)C1=O (stereo unspecified) | inactive |
| Cc1ccc(S(=O)(=O)N(CC(=O)NCc2ccco2)Cc2ccc(F)cc2)cc1 | inconclusive [inhibitor, partial curve, poor fit] |
| S=C(NCC1CCCO1)NC12CC3CC(CC(C3)C1)C2 (stereo unspecified) | inconclusive [inhibitor, single point] |
| Cc1ccc(S(=O)(=O)CC(=O)NC(C)c2ccccc2)cc1 (stereo unspecified) | inactive |
| Cc1ccc(NC(=O)c2ccc(C#CC3(O)CCCCC3)cc2)cc1C | inconclusive [inhibitor, partial curve] |
| COc1ccc(OC)c(CNC(=O)CCS(=O)(=O)c2ccc3c(c2)oc(=O)n3C)c1 | inconclusive [inhibitor, single point] |
| COc1nc(-c2ccccc2)cc(C(F)(F)F)n1 | inactive |
| CCCCC(=O)Nc1ccc2c(c1)nc(CCN1CCN(C)CC1)n2C | inactive |
| CN(c1ccc(C(=O)N2CCCCCC2)cc1)S(=O)(=O)c1ccccc1 | inconclusive [inhibitor, single point] |
| COc1ccc2[nH]c(C(=O)NCCN3CCCCC3)cc2c1 | inactive |
| Cc1ccc(C(=O)NCCn2c(N)c(C#N)c3nc4ccccc4nc32)cc1 | inconclusive [inhibitor, partial curve] |
| Cc1cc(=O)oc(C)c1C(=O)NCCC(C)C | inactive |
